Drawing on patent publication US8648074B2, “Substituted octahydropyrrolo[1,2-a]pyrazine sulfonamides as calcium channel blockers” (AbbVie Inc., priority 2011, dated 2014), this text covers IC50 for 30 compounds.

For this assay, the target named is human Cav2.2 (Homo sapiens, UniProt Q00975). As to the kind of experiment: In vitro assessment of calcium channel activity using FLIPR (Ca2+ influx in IMR32 cells). Format: cell-based. The settings on record: IMR32 cells endogenously expressing human Cav2.2; Calcium 4 dye, 60 minute pre-incubation, 2 μM nifedipine, depolarized with 80 mM KCl; average of at least two runs unless marked *.
Broadly, the IC50 is the concentration needed to halve the response being measured. With `O=S(=O)(c1ccc(C(F)(F)F)cc1)N1CCN2C[C@H](Oc3nccc(C4CC4)n3)C[C@H]2C1` [Example 47, (7R,8aS)-7-[(4-cyclopropylpyrimidin-2-yl)oxy]-2-{[4-(trifluoromethyl)-phenyl]sulfonyl}octahydropyrrolo[1,2-a]pyrazine], the IC50 stood at 2170 nM.
Consider `O=S(=O)(c1ccc(C(F)(F)F)cn1)N1CCN2C[C@H](Oc3cnc(C4CC4)cn3)C[C@H]2C1` [Example 67, (7R,8aS)-7-[(5-cyclopropylpyrazin-2-yl)oxy]-2-{[5-(trifluoromethyl)pyridin-2-yl]sulfonyl}octahydropyrrolo[1,2-a]pyrazine], for which the concentration for half-maximal inhibition (IC50) came to 1800 nM.
With `CCc1ccc(S(=O)(=O)N2CCN3C[C@H](Oc4cnc(C5CC5)cn4)C[C@H]3C2)s1` [Example 164, (7R,8aS)-7-[(5-cyclopropylpyrazin-2-yl)oxy]-2-[(5-ethyl-2-thienyl)sulfonyl]-octahydropyrrolo[1,2-a]pyrazine], the concentration for half-maximal inhibition (IC50) was 1910 nM.
On to `O=S(=O)(c1ccc(C(F)(F)F)cc1)N1CCN2C[C@H](Oc3cnc(C4CC4)cn3)C[C@H]2C1` [Example 25, (7R,8aS)-7-[(5-cyclopropylpyrazin-2-yl)oxy]-2-{[4-(trifluoromethyl)-phenyl]sulfonyl}octahydropyrrolo[1,2-a]pyrazine], for which the IC50 amounted to 1330 nM.
With `O=S(=O)(c1cccc(Br)c1)N1CCN2C[C@H](Oc3cnc(C4CC4)cn3)C[C@H]2C1` [Example 137, (7R,8aS)-2-[(3-bromophenyl)sulfonyl]-7-[(5-cyclopropylpyrazin-2-yl)oxy]-octahydropyrrolo[1,2-a]pyrazine] the figure was 910 nM; with `N#Cc1cc(C(F)(F)F)cc(S(=O)(=O)N2CCN3C[C@H](Oc4cnc(C5CC5)cn4)C[C@H]3C2)c1` [Example 64, 3-{[(7R,8aS)-7-[(5-cyclopropylpyrazin-2-yl)oxy]hexahydropyrrolo[1,2-a]-pyrazin-2(1H)-yl]sulfonyl}-5-(trifluoromethyl)benzonitrile], 810 nM; with `O=S(=O)(c1cccc(C(F)(F)F)c1)N1CCN2C[C@H](Oc3cnccn3)C[C@H]2C1` [Example 22, (7R,8aS)-7-(pyrazin-2-yloxy)-2-{[3-(trifluoromethyl)phenyl]sulfonyl}-octahydropyrrolo[1,2-a]pyrazine], 2980 nM.
The value for `O=C(NC(c1ccccc1)c1ccccc1)[C@H]1C[C@H]2CN(S(=O)(=O)c3ccc(C(F)(F)F)cc3)CCN2C1` [Example 38, (7S,8aS)—N-(diphenylmethyl)-2-{[4-(trifluoromethyl)phenyl]sulfonyl}-octahydropyrrolo[1,2-a]pyrazine-7-carboxamide] was 1020 nM; that for `Cc1cncc(O[C@@H]2C[C@H]3CN(S(=O)(=O)c4cccc(C(F)(F)F)c4)CCN3C2)n1` [Example 81, (7R,8aS)-7-[(6-methylpyrazin-2-yl)oxy]-2-{[3-(trifluoromethyl)phenyl]-sulfonyl}octahydropyrrolo[1,2-a]pyrazine] was 3180 nM; that for `Cc1cnc(O[C@@H]2C[C@H]3CN(S(=O)(=O)c4cccc(C(F)(F)F)c4)CCN3C2)cn1` [Example 80, (7R,8aS)-7-[(5-methylpyrazin-2-yl)oxy]-2-{[3-(trifluoromethyl)phenyl]-sulfonyl}octahydropyrrolo[1,2-a]pyrazine] was 2990 nM.
The value for `O=S(=O)(c1cccc(C(F)(F)F)c1)N1CCN2C[C@H](Oc3cncc(C4CC4)n3)C[C@H]2C1` [Example 23, (7R,8aS)-7-[(6-cyclopropylpyrazin-2-yl)oxy]-2-{[3-(trifluoromethyl)phenyl]-sulfonyl}octahydropyrrolo[1,2-a]pyrazine] was 790 nM; that for `CCCc1ccc(S(=O)(=O)N2CCN3C[C@H](Oc4cnc(C5CC5)cn4)C[C@H]3C2)cc1` [Example 157, (7R,8aS)-7-[(5-cyclopropylpyrazin-2-yl)oxy]-2-[(4-propylphenyl)-sulfonyl]octahydropyrrolo[1,2-a]pyrazine] was 1360 nM.
In the case of `O=C1CN(S(=O)(=O)c2ccc(C(F)(F)F)cc2)C[C@@H]2C[C@@H](Oc3cnc(C4CC4)cn3)CN12` [Example 221, (7R,8aS)-7-[(5-cyclopropylpyrazin-2-yl)oxy]-2-{[4-(trifluoromethyl)-phenyl]sulfonyl}hexahydropyrrolo[1,2-a]pyrazin-4(1H)-one], the IC50 was more than 30000 nM.
The value for `Cc1cc(S(=O)(=O)N2CCN3C[C@H](Oc4cnc(C5CC5)cn4)C[C@H]3C2)ccc1Br` [Example 133, (7R,8aS)-2-[(4-bromo-3-methylphenyl)sulfonyl]-7-[(5-cyclopropylpyrazin-2-yl)oxy]octahydropyrrolo[1,2-a]pyrazine] was 1930 nM; that for `O=S(=O)(c1ccc(Cl)cc1Cl)N1CCN2C[C@H](Oc3cnc(C4CC4)cn3)C[C@H]2C1` [Example 154, (7R,8aS)-7-[(5-cyclopropylpyrazin-2-yl)oxy]-2-[(2,4-dichlorophenyl)-sulfonyl]octahydropyrrolo[1,2-a]pyrazine] was 1260 nM; that for `O=S(=O)(c1ccccc1F)N1CCN2C[C@H](Oc3cnc(C4CC4)cn3)C[C@H]2C1` [Example 31, (7R,8aS)-7-[(5-cyclopropylpyrazin-2-yl)oxy]-2-[(2-fluorophenyl)sulfonyl]-octahydropyrrolo[1,2-a]pyrazine] was 2310 nM.
Take `O=S(=O)(c1cccc(C(F)(F)F)c1)N1CCN2C[C@H](Oc3ccnc(C4CC4)n3)C[C@H]2C1` [Example 166, (7R,8aS)-7-[(2-cyclopropylpyrimidin-4-yl)oxy]-2-{[3-(trifluoromethyl)-phenyl]sulfonyl}octahydropyrrolo[1,2-a]pyrazine]: the concentration for half-maximal inhibition (IC50) was 1120 nM.
Regarding `O=S(=O)(c1cc(C(F)(F)F)ccc1N1CCOCC1)N1CCN2C[C@H](Oc3cnc(C4CC4)cn3)C[C@H]2C1` [Example 178, (7R,8aS)-7-[(5-cyclopropylpyrazin-2-yl)oxy]-2-{[2-(morpholin-4-yl)-5-(trifluoromethyl)phenyl]sulfonyl}octahydropyrrolo[1,2-a]pyrazine], the IC50 was 3020 nM.
The value for `Cc1ccc(C#N)c(S(=O)(=O)N2CCN3C[C@H](Oc4cnc(C5CC5)cn4)C[C@H]3C2)c1` [Example 182, 2-{[(7R,8aS)-7-[(5-cyclopropylpyrazin-2-yl)oxy]hexahydropyrrolo[1,2-a]-pyrazin-2(1H)-yl]sulfonyl}-4-methylbenzonitrile] was 1640 nM; that for `O=S(=O)(c1ccc(C(F)(F)F)cc1)N1CCN2C[C@H](Oc3cnc(C4CCC4)cn3)C[C@H]2C1` [Example 102, (7R,8aS)-7-[(5-cyclobutylpyrazin-2-yl)oxy]-2-{[4-(trifluoromethyl)phenyl]-sulfonyl}octahydropyrrolo[1,2-a]pyrazine] was 1900 nM; that for `O=S(=O)(c1cc(C(F)(F)F)ccc1Br)N1CCN2C[C@H](Oc3cnc(C4CC4)cn3)C[C@H]2C1` [Example 134, (7R,8aS)-2-{[2-bromo-5-(trifluoromethyl)phenyl]sulfonyl}-7-[(5-cyclopropylpyrazin-2-yl)oxy]octahydropyaolo[1,2-a]pyrazine] was 11100 nM.
Turning to `C=C(C)c1cnc(O[C@@H]2C[C@H]3CN(S(=O)(=O)c4ccc(C(F)(F)F)cc4)CCN3C2)cn1` [Example 116, (7R,8aS)-7-{[5-(prop-1-en-2-yl)pyrazin-2-yl]oxy}-2-{[4-(trifluoromethyl)-phenyl]sulfonyl}octahydropyrrolo[1,2-a]pyrazine], the IC50 was found to be 2570 nM.
The value for `C=C(C)c1cnc(O[C@@H]2C[C@H]3CN(S(=O)(=O)c4cccc(C(C)(C)C)c4)CCN3C2)cn1` [Example 113, (7R,8aS)-2-[(3-tert-butylphenyl)sulfonyl]-7-{[5-(prop-1-en-2-yl)pyrazin-2-yl]oxy}octahydropyrrolo[1,2-a]pyrazine] was 940 nM.
The value for `O=S(=O)(c1cccc(C(F)(F)F)c1)N1CCN2C[C@H](Oc3cnc(C4CC4)cn3)C[C@@H]2C1` [Example 111, (7R,8aR)-7-[(5-cyclopropylpyrazin-2-yl)oxy]-2-{[3-(trifluoromethyl)phenyl]-sulfonyl}octahydropyrrolo[1,2-a]pyrazine] was 2900 nM; that for `COc1ccc(C(F)(F)F)cc1S(=O)(=O)N1CCN2C[C@H](Oc3cnc(C4CC4)cn3)C[C@H]2C1` [Example 173, (7R,8aS)-7-[(5-cyclopropylpyrazin-2-yl)oxy]-2-{[2-methoxy-5-(trifluoromethyl)phenyl]sulfonyl}octahydropyrrolo[1,2-a]pyrazine] was more than 30000 nM.
With `O=S(=O)(c1cc(C(F)(F)F)ccc1Cl)N1CCN2C[C@H](Oc3cnc(C4CC4)cn3)C[C@H]2C1` [Example 172, (7R,8aS)-2-{[2-chloro-5-(trifluoromethyl)phenyl]sulfonyl}-7-[(5-cyclopropylpyrazin-2-yl)oxy]octahydropyaolo[1,2-a]pyrazine] the figure was 1210 nM; with `O=S(=O)(c1cccc(F)c1F)N1CCN2C[C@H](Oc3cnc(C4CC4)cn3)C[C@H]2C1` [Example 95, (7R,8aS)-7-[(5-cyclopropylpyrazin-2-yl)oxy]-2-[(2,3-difluorophenyl)-sulfonyl]octahydropyrrolo[1,2-a]pyrazine], 2540 nM; with `O=S(=O)(c1ccc2c(c1)CCC2)N1CCN2C[C@H](Oc3cnc(C4CC4)cn3)C[C@H]2C1` [Example 174, (7R,8aS)-7-[(5-cyclopropylpyrazin-2-yl)oxy]-2-(2,3-dihydro-1H-inden-5-yl-sulfonyl)octahydropyrrolo[1,2-a]pyrazine], 1520 nM.
In the case of `O=C(N[C@H]1C[C@H]2CN(S(=O)(=O)c3cccc(C(F)(F)F)c3)CCN2C1)c1ccc(Cl)cc1` [Example 5, 4-chloro-N-[(7S,8aS)-2-{[3-(trifluoromethyl)phenyl]sulfonyl}octahydropyrrolo[1,2-a]pyrazin-7-yl]benzamide], the IC50 was 750 nM.
With `O=S(=O)(c1ccc(C(F)(F)F)cc1Cl)N1CCN2C[C@@H](Nc3cccc(C(F)(F)F)n3)C[C@H]2C1` [Example 16, (7S,8aS)-2-{[2-chloro-4-(trifluoromethyl)phenyl]sulfonyl}-N-[6-(trifluoromethyl)pyridin-2-yl]octahydropyrrolo[1,2-a]pyrazin-7-amine] the figure was 550 nM.
